# About 9,900 (2.8%) of roughly 350,000 compounds were called active. The inconclusive results got no clear call from the source; some entries with a clear call stand among them for comparison. The call rests on the fitted dose curve; in most records, active means well fitted activation curve with a large enough effect; inconclusive means small, poorly fitted or top-dose-only effect; inactive means no such curve, though single readings can be large or run the other way. Potencies of inconclusive entries are left out as doubtful fits.
# Test: A quantitative high throughput screen for small molecules that induce DNA re-replication in MCF 10a normal breast cells. Further: nearly all actives have a fitted effect of over 50% in size. On activity, positive = re-replication: % of control where 0% means no effect.
# Settings: MCF 10A DNA re-replication, Hoechst nuclear intensity, 48 h; activity, positive = re-replication: at 46.1 µM (top of the series)
# Potency means the concentration at half of the fitted maximal effect; tags describe the fitted curve by direction and shape.
SMILES,Potency,"activity, positive = re-replication"
COc1cccc(C(C(=O)NC2CCCC2)N(Cc2ccc(C)cc2)C(=O)c2ccco2)c1OC (configuration not stated),"inconclusive [activator, single point]",–
O=C(Nc1ccncc1)C1CCN(S(=O)(=O)c2ccccc2C(F)(F)F)CC1,"inconclusive [activator, partial curve, poor fit]",–
COc1ccc(Oc2cccc(Cl)c2CNC(=O)CCC(=O)O)cc1,"inconclusive [activator, full curve, poor fit]",–
Cc1nc(N2CCN(Cc3ccc(Cl)cc3)CC2)c2oc3ccccc3c2n1,"inconclusive [activator, single point]",–
COc1ccc2c(c1)c(CC(=O)Nc1ccc(C)cc1)c(C)n2C(=O)c1ccc(Cl)cc1,"inconclusive [activator, single point]",–
C/C=C(\C)C(=O)OC(C)(C)[C@H]1Cc2cc3ccc(=O)oc3cc2O1,"inconclusive [activator, single point]",–
Cc1cccc(N2CCN(C(c3ccccc3)c3nnnn3CC3CCCO3)CC2)c1C (configuration not stated),"inconclusive [activator, single point]",–
CN(C)c1ccc(/C=C(\C#N)c2ccccc2)cc1,active: 3.66 µM,–
CCc1ccccc1NC(=O)CN(C)C(=O)Cn1ncc(Cl)c(Cl)c1=O,active: 5.8 µM,–
COc1ccccc1NC(=S)N(Cc1cccnc1)Cc1ccccc1Cl,–,inactive: -9.81%
CCn1cnc2cc(NCc3nc4ccccc4n3Cc3ccccc3)ccc21,"inconclusive [activator, partial curve]",–
O=C(Nc1ccc(Br)cc1F)c1ccc2c(c1)OCCO2,–,inactive: 9.82%
Cc1ccccc1OCC(=O)NNC(=S)NC(=O)c1ccco1,active: 14.1 µM,–
COc1cccc(OCCn2cc(/C=N/NC(=O)c3ccncc3)c3ccccc32)c1,"inconclusive [activator, single point]",–
COc1c(F)c(F)c(C(=O)Nc2ccc(N3CCN(Cc4ccccc4)CC3)cc2)c(F)c1F,"inconclusive [activator, partial curve]",–
CC(C)(C)NC(=O)COC(=O)c1snc(C(=O)NC2CCCCC2)c1N,–,inactive: 4.55%
Cc1cccc(OCC(=O)NCC(=O)N/N=C/c2ccc(O)cc2O)c1,"inconclusive [activator, single point]",–
CC(C)(C)c1ccc(-c2n[nH]c(=S)n2CCCN2CCOCC2)cc1,–,inactive: 0.134%
Cc1cc(C)cc(NC(=O)Cn2c(SCc3cc(C)ccc3C)nc3ccncc32)c1,"inconclusive [activator, single point]",–
Cc1nc(SCC(=O)Nc2ccc(C)c(F)c2)c2oc3ccccc3c2n1,"inconclusive [activator, full curve, poor fit]",–
CN1CCCC(CC2Oc3ccccc3Sc3ccccc32)C1 (configuration not stated),"inconclusive [activator, partial curve, poor fit]",–
O=C(N/N=C/c1ccccn1)c1ccc([N+](=O)[O-])cc1Cl,–,inactive: -1.57%
O=C(CCN1C(=O)C2C3C=CC(C3)C2C1=O)Nc1ccccc1 (configuration not stated),"inconclusive [activator, single point]",–
Nc1ccccc1-c1nc2ccccc2[nH]c1=O,–,inactive: -2.2%

SMILES,Potency,"activity, positive = re-replication"
CCCCCCC1/C(=N\NC(=O)c2ccccc2)CCC1C(=O)OC (configuration not stated),–,inactive: 3.12%
C=CCNC(=S)N/N=C/c1ccc(-c2cc(Cl)ccc2Cl)o1,"inconclusive [activator, partial curve, poor fit]",–
O=C(CCNC(=O)c1ccco1)NCCc1c[nH]c2ccccc12,–,inactive: -1.38%
CC(C)(O)C#Cc1ccc(CN2CCCC(CO)(Cc3cccc(Cl)c3)C2)cc1 (configuration not stated),–,inactive: 25.1%
O=C(CCCc1nc(-c2ccc(Cl)cc2)no1)NC1CCCCC1,–,inactive: 16.4%
CN(c1ccc2nc3ccccc3c(=O)n2n1)C1CCCCC1,–,inactive: -2.71%
CC(=O)N1CCN(CC(=O)Nc2ccc(C)c(S(=O)(=O)N(C)C)c2)CC1,"inconclusive [activator, single point]",–
COc1cc2c(=O)n(CCC(=O)NCC3CCCO3)c(=O)n(CC(=O)Nc3ccccc3C)c2cc1OC (configuration not stated),"inconclusive [activator, single point]",–
O=C(CSc1nnc(NC2CCCCC2)s1)NN1C(=O)NC2(CCCCC2)C1=O,"inconclusive [activator, partial curve, poor fit]",–
N#C/C(=C\c1ccc(OCc2ccccc2)cc1)C(=O)Nc1ccc(C(=O)O)cc1,"inconclusive [activator, single point]",–
O=C(Nc1ncc(Br)s1)C(Cc1ccccc1)n1cccc1 (configuration not stated),–,inactive: 19.4%
CN(C)c1ccc(/C=C2/C[N+](C)(C)C/C(=C/c3ccc(N(C)C)cc3)C2=O)cc1,"inconclusive [activator, partial curve, poor fit]",–
Cc1ccc(C(=O)/C=C/c2ccccc2)o1,"inconclusive [activator, single point]",–
Cc1ccc(-c2csc(N3CCC(C(N)=O)CC3)n2)cc1,–,inactive: 10.7%
O=C(CSc1ncn[nH]1)Nc1ccc(Cl)c(Cl)c1,–,inactive: -1.77%
O=C(Nc1nnc(C2CC2)s1)c1cc2ccccc2o1,"inconclusive [activator, single point]",–
CC(C)(C)NS(=O)(=O)c1ccc(NS(=O)(=O)c2ccc(F)cc2)cc1,–,inactive: 0.107%
Cc1[nH]nc2c1C(c1ccc3c(c1)OCO3)C(C#N)=C(N)O2 (configuration not stated),"inconclusive [activator, single point]",–
CCc1nnc2sc(-c3ccc(NC(=O)c4ccco4)cc3)nn12,–,inactive: 1.55%
Cc1c(C#N)c(NC(=O)CCl)n(Cc2cccs2)c1C,"inconclusive [activator, single point]",–
CCCCCC(O)(c1ccc(OC)cc1)C(CN1CCOCC1)c1ccccc1 (configuration not stated),active: 16.4 µM,–
CC(C)c1c(C#N)c(N)nc(SCC(=O)c2cc3ccccc3oc2=O)c1C#N,active: 14.6 µM,–
COc1ccc2c(c1OC)C(=O)N1c3ccccc3COC21 (configuration not stated),–,inactive: 13.9%
